Assay results: PubChem BioAssay AID330 (DTP/NCI, 2004)
Toxic doses and inconclusive results are not listed. Not every entry of the source has a single result; some have several. They are shown here; other results are not. The source may hold further records. The records of an entry repeat one measurement across runs, samples, wells, individuals or studies. Brackets tell where a record comes from. Letters hold for one entry only.

System: P388 leukemia ip, CD2F1 mice, survival T/C
Test: NCI In Vivo Anticancer Drug Screen. Data for tumor model P388 Leukemia (intraperitoneal) in CD2F1 (CDF1) mice
Details: endpoint: median survival time, higher = longer survival
[1] = dose: 240.0 mg/kg/injection, schedule: Q01DX005 (ip), vehicle: saline with Tween-80
[2] = dose: 50.0 mg/kg/injection, schedule: Q01DX009 (ip), vehicle: saline

`O=NNc1ccc(Oc2ccccc2)cn1` was tested, and the T/C (dose: 12.5 mg/kg/injection, schedule: Q01DX009 (ip), vehicle: saline) was 121 % of control and 184 % of control.

With `COc1cc(C2CC(C)(O)Oc3cc4c(cc32)OCO4)cc(OC)c1OC` (configuration not stated) the T/C (dose: 120.0 mg/kg/injection, schedule: Q01DX005 (ip), vehicle: saline with Tween-80) was 114 % of control and 163 % of control and the T/C [1] was 89 % of control and 152 % of control.

In the case of `Cc1cc(N(CCOS(C)(=O)=O)CCOS(C)(=O)=O)ccc1C=Nc1ccc(-c2nc(Cc3ccccc3)sc2C)cc1`, the T/C (dose: 25.0 mg/kg/injection, schedule: Q01DX009 (ip), vehicle: Klucel (hydroxypropylcellulose) (HPC)) is reported as 119 % of control and 166 % of control.

In the case of `CCC/C(=N\O)S(=O)(=O)c1ccc(NN=O)nc1`, the T/C [2] is reported as 90 % of control and 154 % of control.

In the case of `Nc1[nH]c(=S)[nH]c(=O)c1NS(=O)(=O)c1ccccc1`, the T/C (dose: 60.0 mg/kg/injection, schedule: Q01DX005 (ip), vehicle: Klucel (hydroxypropylcellulose) (HPC)) is reported as 100 % of control, 103 % of control, 150 % of control.

`CC([NH-])C[NH-].O=S(=O)(O)O.[Pt+2]` (configuration not stated) was tested, and the T/C (dose: 6.25 mg/kg/injection, schedule: Q04DX002 (ip), vehicle: saline) was 103 % of control [sample A] and 197 % of control [sample B].

In the case of `Cc1c2ccncc2c(C)c2c1[nH]c1ccccc12`, the T/C (dose: 25.9 mg/kg/injection, schedule: Q04DX002 (ip), vehicle: saline with Tween-80) is reported as 120 % of control and 173 % of control.

In the case of `[Cl][Pt+2][Cl].[NH-]C1CCC1.[NH2-]`, the T/C (dose: 6.0 mg/kg/injection, schedule: Q01DX005 (ip), vehicle: saline) is reported as 94 % of control, 154 % of control, 190 % of control.

With `Cn1c2nc(=O)n(-c3ccccc3)c(=O)c-2nc2c1CCCC2` the T/C (dose: 25.0 mg/kg/injection, schedule: Q01DX009 (ip), vehicle: saline with Tween-80) was 124 % of control and 171 % of control.

`COC(=O)[C@@]12OC[C@]34[C@H]([C@@H](O)[C@@H]1O)[C@@]1(C)CC(=O)C(O)=C(C)[C@@H]1C[C@H]3OC(=O)[C@H](OC(=O)/C=C(/C)C(C)(C)O)[C@@H]24` was tested, and the T/C (dose: 1.0 mg/kg/injection, schedule: Q01DX009 (ip), vehicle: saline + alcohol) was 103 % of control and 154 % of control.

`Oc1ccc(CCl)c2cccnc12` was tested, and the T/C [2] was 123 % of control and 150 % of control.

For `[Cl][Pt+2][Cl].[NH-]c1cccc(F)c1.[NH-]c1cccc(F)c1`, the T/C (dose: 12.5 mg/kg/injection, schedule: Q01DX009 (ip), vehicle: Klucel (hydroxypropylcellulose) (HPC)) was 120 % of control and 167 % of control.

In the case of `N[C@H](C(=O)O)[C@@H]1CC(Cl)=NO1`, the T/C (dose: 4.0 mg/kg/injection, schedule: Q01DX005 (ip), vehicle: water) is reported as 119 % of control and 166 % of control, the T/C (dose: 8.0 mg/kg/injection, schedule: Q01DX005 (ip), vehicle: water) is reported as 122 % of control and 150 % of control and the T/C (dose: 12.0 mg/kg/injection, schedule: Q01DX009 (ip), vehicle: saline) is reported as 102 % of control and 191 % of control. The T/C (dose: 50.0 mg/kg/injection, schedule: Q01DX005 (ip), vehicle: water) was 110 % of control and 179 % of control.

With `Fc1ccc(F)c(C(Nc2nncs2)Nc2nncs2)c1` the T/C [1] was 117 % of control and 174 % of control.

For `NC1=NC(=S)C2N=C(N=Nc3ccc(C(=O)NC(CCC(=O)O)C(=O)O)cc3)N=C2N1` (configuration not stated), the T/C (dose: 0.37 mg/kg/injection, schedule: Q01DX009 (ip), vehicle: Klucel (hydroxypropylcellulose) (HPC)) was 117 % of control and 157 % of control.

In the case of `CO[C@H]1Nc2c(ccc(C)c2O)C(=O)N2C=C(/C=C/C(N)=O)C[C@@H]12`, the T/C (dose: 0.36 mg/kg/injection, schedule: Q04DX003 (ip), vehicle: saline + alcohol) is reported as 92 % of control, 159 % of control, 165 % of control.

With `Nc1nc(N)c2c(ccc3c2ccn3Cc2cccc([N+](=O)[O-])c2)n1` the T/C (dose: 12.5 mg/kg/injection, schedule: Q01DX005 (ip), vehicle: saline with Tween-80) was 97 % of control, 100 % of control, 187 % of control.

In the case of `CN1CCc2c(c3ccccc3c3ccccc23)C1`, the T/C (dose: 100.0 mg/kg/injection, schedule: Q01DX009 (ip), vehicle: Klucel (hydroxypropylcellulose) (HPC)) is reported as 105 % of control and 168 % of control.

In the case of `O=C1C=C(O)C(=O)C(CC2=C(O)C(=O)C=C(O)C2=O)=C1O`, the T/C (dose: 50.0 mg/kg/injection, schedule: Q01DX005 (ip), vehicle: Klucel (hydroxypropylcellulose) (HPC)) is reported as 87 % of control, 96 % of control, 161 % of control.

In the case of `Nc1nc(N)c2cc(Sc3ccc(Cl)cc3)ccc2n1`, the T/C (dose: 100.0 mg/kg/injection, schedule: Q01DX009 (ip), vehicle: saline with Tween-80) is reported as 123 % of control and 155 % of control.

For `CCC(=O)OCC(=O)[C@]1(O)Cc2c(O)c3c(c(O)c2[C@@H](OC2CC(N)C(O)C(C)O2)C1)C(=O)c1c(OC)cccc1C3=O` (some centres not stated), the T/C (dose: 4.0 mg/kg/injection, schedule: Q01DX009 (ip), vehicle: saline) was 88 % of control and 157 % of control.

`O=NN(CCCl)C(=O)Oc1ccc(OC(=O)N(CCCl)N=O)cc1` was tested, and the T/C (dose: 50.0 mg/kg/injection, schedule: Q01DX001 (ip), vehicle: Klucel (hydroxypropylcellulose) (HPC)) was 117 % of control and 150 % of control.

In the case of `C[CH2][Sn]([CH2]C)([N](c1ccccn1)c1ccccn1)[N](c1ccccn1)c1ccccn1`, the T/C (dose: 12.5 mg/kg/injection, schedule: Q01DX005 (ip), vehicle: Klucel (hydroxypropylcellulose) (HPC)) is reported as 122 % of control and 151 % of control.
